Measurements: publication PMC4336329 (PLoS ONE, 2015)
The campaign covered roughly 310,000 compounds. About 2,200 (0.71%) showed an effect of 50% or more. The effect is printed as a negative number. Some of the results follow.

Each compound was assayed against human ether-à-go-go-related gene (hERG) potassium channel (human, UniProt Q12809) (assay: primary screen, population patch clamp on CHO cells stably expressing hERG).
human ether-à-go-go-related gene (hERG) potassium channel, sequence (Q12809 whole entry, looked up): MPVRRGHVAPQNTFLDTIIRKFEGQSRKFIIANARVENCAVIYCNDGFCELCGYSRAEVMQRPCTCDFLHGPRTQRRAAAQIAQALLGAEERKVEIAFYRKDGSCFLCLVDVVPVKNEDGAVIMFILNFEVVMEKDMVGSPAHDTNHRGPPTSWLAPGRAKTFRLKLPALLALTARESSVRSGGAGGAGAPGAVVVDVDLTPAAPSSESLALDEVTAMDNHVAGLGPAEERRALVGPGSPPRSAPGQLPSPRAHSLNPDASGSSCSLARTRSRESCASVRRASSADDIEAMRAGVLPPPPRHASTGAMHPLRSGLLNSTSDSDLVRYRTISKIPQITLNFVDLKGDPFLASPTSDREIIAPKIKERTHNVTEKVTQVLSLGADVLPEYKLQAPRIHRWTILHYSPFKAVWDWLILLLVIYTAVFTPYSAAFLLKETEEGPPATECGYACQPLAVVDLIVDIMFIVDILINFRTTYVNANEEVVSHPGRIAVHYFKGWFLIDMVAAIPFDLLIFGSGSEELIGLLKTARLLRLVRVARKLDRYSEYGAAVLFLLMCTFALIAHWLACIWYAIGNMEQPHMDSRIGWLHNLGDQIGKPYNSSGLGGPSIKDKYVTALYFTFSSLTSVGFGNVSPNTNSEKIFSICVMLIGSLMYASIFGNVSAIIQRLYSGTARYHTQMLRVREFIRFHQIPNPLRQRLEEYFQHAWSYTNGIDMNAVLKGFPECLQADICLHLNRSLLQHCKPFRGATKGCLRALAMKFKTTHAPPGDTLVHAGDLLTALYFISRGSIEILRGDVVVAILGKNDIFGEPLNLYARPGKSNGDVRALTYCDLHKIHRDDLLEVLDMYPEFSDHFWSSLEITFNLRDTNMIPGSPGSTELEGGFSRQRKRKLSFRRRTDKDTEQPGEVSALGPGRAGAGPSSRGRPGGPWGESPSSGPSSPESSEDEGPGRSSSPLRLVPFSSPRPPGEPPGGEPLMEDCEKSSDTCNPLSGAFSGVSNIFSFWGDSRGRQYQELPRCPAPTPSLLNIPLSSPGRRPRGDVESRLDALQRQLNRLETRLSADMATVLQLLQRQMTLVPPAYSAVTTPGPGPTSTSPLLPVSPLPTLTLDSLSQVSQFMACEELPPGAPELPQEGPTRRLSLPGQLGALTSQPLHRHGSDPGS

SMILES	hERG current change (%, negative = inhibition) at 1uM
COc1ccc(C)cc1NC(=O)c1cc(S(=O)(=O)N2CCC3(CC2)OCCO3)ccc1F	-3.95%
O=S(=O)(Nc1ccc(S(=O)(=O)N2CCCCC2)cc1)c1ccc(Br)s1	6.74%
Cc1nc2c(C(=O)NCCC(C)C)c[nH]n2c(=O)c1Cl	6.36%
CC(=O)C1=C(O)C(=O)N(c2ccc(Br)cc2)C1c1cccc([N+](=O)[O-])c1 (centres unmarked)	18.1%
CCCCCCOC(=O)Nc1ccc(S(=O)(=O)Nc2cccc([N+](=O)[O-])c2)cc1	8.97%
CCCC(=O)Nc1nc2ccc(NC(=O)c3ccccc3F)cc2s1	14.1%
COCCn1c(C)cc(C(=O)COC(=O)c2ccccc2Br)c1C	-21.6%
Cn1c2ccccc2c2cnn(CC(=O)Nc3ccc(Cl)cc3)c(=O)c21	8.19%
COc1ccc(N(CC(=O)NC2CCCC2)C(=O)c2ccc(N3CCCCC3)nc2)cc1	17.3%
CCCCC(=O)Oc1ccccc1C1SCc2cc(C)c(C)cc2CS1	13.9%
CCn1c2ccccc2c2cc(NC(=O)C/C(C)=N/NC(=O)c3ccccc3N)ccc21	5.42%
COc1ccc(Br)cc1S(=O)(=O)Nc1cccc(C)n1.Cl	8.39%
CCCCn1c(N)c(N(CCOC)C(=O)c2cc(-c3ccncc3)nc3ccccc23)c(=O)[nH]c1=O	18.9%
O=C(CN1CCC(O)(c2cccc(C(F)(F)F)c2)CC1)NCCc1ccccc1	2.25%
CCCC(=O)N(c1ccc2oc(C)c(C(C)=O)c2c1)S(=O)(=O)c1ccc(C(=O)O)cc1	17.6%
CCOC(=O)N1CCC(Nc2c(NCCCN3CCN(C4CCCCC4)CC3)c(=O)c2=O)CC1	6.83%
COc1cc(S(=O)(=O)N(CCc2ccccc2)Cc2cccs2)ccc1-n1cnnn1	12.9%
O=[N+]([O-])c1ccc(NCc2ccc(Cl)cc2)nc1	15.4%
O=c1[nH]c2ccc(N/C(=N/S(=O)(=O)c3ccccc3)c3ccccc3)cc2[nH]1	18%
C=CCOc1ccc2nnc(C)n2n1	8.77%
O=C(Nc1cc(Cl)cc(Cl)c1)N1CCCN(Cc2ccccc2)CC1	-22.9%
COc1cc(NC(=O)c2ccc(-c3csc(C)n3)cc2)c(OC)cc1Cl	11.9%

SMILES	hERG current change (%, negative = inhibition) at 1uM
COC(=O)C(C)N1C(=O)S/C(=C\c2cc(C)n(-c3ccccn3)c2C)C1=O (centres unmarked)	5.84%
Cc1cc(C)c2c(n1)SCC(=O)N2CC(=O)Nc1ccccc1Cl	12.5%
COC(=O)/C(=C1/Oc2cc3c(cc2S1)OCO3)C(F)(F)F	7.79%
COc1ccc(/C=N/n2c(C)nc3sc(C)c(C)c3c2=O)cc1OC	11.3%
CCC(C)N(CCNC(=O)CC1Oc2ccccc2NC1=O)C1CCCCC1 (centres unmarked)	-35.6%
C/C(=N\NC(=O)c1c[nH]c2ccccc12)c1ccccn1	13.4%
COc1cc(/C=C(\C#N)c2nc3ccccc3[nH]2)c([N+](=O)[O-])cc1OCc1ccccc1	13.9%
CCCNC(=O)c1ccc2c(=O)c(O)c(-c3ccc(C)cc3)[nH]c2c1	-11%
Cc1ccc(COc2ccc(CNCCCN3CCCCCC3=O)cc2)cc1	16.1%
COc1ccc(NC(=O)c2sc3nc(-c4cccnc4)ccc3c2N)cc1	4.14%
Cc1ccc(OCC(=O)Nc2cccc(C)n2)c(C)c1	11.6%
COc1ccc2oc(=O)c(/C(N)=N/NC(=O)c3ccncc3)cc2c1	10%
CSc1cccc(NC(=O)C2CCCN(S(=O)(=O)c3ccc(F)cc3)C2)c1 (centres unmarked)	10.6%
COc1cc(NC(=O)C2CCCCN2)ccc1OCC(C)C (centres unmarked)	5.55%
c1ccc2c(c1)nnn2Cc1nnc2sc(-c3ccc4c(c3)OCCO4)nn12	9.84%
COC(=O)c1sccc1NC(=S)N1CCN(c2ccccc2)CC1	-1.2%
O=c1[nH]c(=O)n(CCC2=CCCCC2)c(O)c1C=Nc1cccc(F)c1	-4.58%
O=C(c1cc2ccccn2n1)N1CCN(c2cccc(C(F)(F)F)c2)CC1	0.592%
NC(=O)C1CCN(C(=O)C2CC(=O)N(c3ccc4c(c3)OCCO4)C2)CC1 (centres unmarked)	9.68%
Cc1ccc(S(=O)(=O)N(C)CC(=O)N2CCCCCCC2)cc1	-1.03%
CCN1CCN(c2nc3c(c(=O)n(C)c(=O)n3C)n2CCSc2ncccn2)CC1	13.5%
CCCCOP(=O)(OCCCC)C(Nc1ccc(C(=O)OCC)cc1)c1ccncc1 (centres unmarked)	-2.48%

SMILES	hERG current change (%, negative = inhibition) at 1uM
CCN1C(=O)c2cccc3c(S(=O)(=O)Nc4ccncc4)ccc1c23	10.5%
CCC(=O)Nc1ccc(/C(C)=N/NC(=O)c2c(-c3ccccc3Cl)noc2C)cc1	0.655%
CCOC(=O)C1CCN(S(=O)(=O)c2ccc(Br)c(OCC)c2)CC1	0.854%
I.NC(Cc1ccccc1)C(O)(c1ccccc1)c1ccccc1 (centres unmarked)	12.2%
CCN(CC)C1CCN(Cc2cn[nH]c2-c2ccc(OC)c(F)c2)C1 (centres unmarked)	-4.96%
CN(Cc1ccccc1)S(=O)(=O)c1ccc(Cl)c(C(=O)N2CCC2)c1	3.15%
S=C(Nc1ccccc1Cl)N1CCCC(c2ccccc2)=N1	13.8%
CC1=NN(S(=O)(=O)c2ccc(C)cc2)C(=O)c2ccccc2O1	1.84%
CCOc1ccc(C2CC(c3cccc(OC)c3)Nc3ncnn32)cc1 (centres unmarked)	-12%
O=C(O)c1ccc(Nc2ncc([N+](=O)[O-])cc2[N+](=O)[O-])cc1	13.5%
CCOP(=O)(OCC)c1cccc(O)c1	2.18%
CCOC(=O)c1sc(=S)n(-c2ccc(Cl)cc2)c1C	7.71%
CN(C)CC(=O)c1ccc(-c2ccccc2)cc1	7.2%
O=C(NC(Cc1c[nH]c2ccccc12)C(=O)O)c1ccc(Br)cc1 (centres unmarked)	16.8%
CC1CCc2nn(CC(=O)N3CCc4ccccc43)cc2C1 (centres unmarked)	1.89%
CC(C)CNS(=O)(=O)c1ccc(S(=O)(=O)N2CCC3(CC2)OCCO3)cc1.O=C(O)C(=O)O	11.6%
Cc1c[n+](CC(=O)c2ccccc2)c(C)cn1.[Br-]	11.9%
CCCC(C)NC(=O)Cn1c(=O)c2c(ncn2CCC(C)C)n(Cc2ccccc2)c1=O (centres unmarked)	12.1%
O=C(CCCN1C(=O)c2ccccc2C1=O)NCCC1=CCCCC1	1.57%
COc1ccc(CCNC(=O)CCc2ccc(S(=O)(=O)NC(C)C)cc2)cc1	5.08%
Cc1cccc2c1cnn2C(=O)CCC(=O)N1CCC(C)CC1	6.31%
FC(F)(F)c1ccccc1CNCCc1c[nH]c2ccccc12.O=C(O)C(=O)O	7.44%

SMILES	hERG current change (%, negative = inhibition) at 1uM
Cc1ccc(NC(=S)N(Cc2ccco2)C2CCN(C(C)C)CC2)cc1	2.08%
O=C(CN1CCCN(Cc2ccc(F)cc2Cl)C1=O)NC1CCCCCCC1	2.79%
COC(=O)c1cc(Br)c(=O)n(CCc2ccc(O)cc2)c1.Cl	6.1%
O=C(COc1ccccc1Cl)N1CCN(c2ccc([N+](=O)[O-])c(N3CCOCC3)c2)CC1	14.6%
COc1cc(/C=C2\N=C(c3c(-c4ccccc4)noc3C)OC2=O)ccc1OC(C)=O	8.68%
COc1cc(C2=NOC(C(=O)NC3CCCCC3)C2)cc(OC)c1OC (centres unmarked)	0.584%
FC(F)Sc1ccc(NC(=S)NC(c2ccccc2)c2ccccc2)cc1	7.3%
COc1cccc(/C=C(/C#N)c2ccc(F)cc2)c1OCc1cccc(C(=O)O)c1	17.3%
CCCS(=O)(=O)N1CCCC(c2nc(-c3cccc(OC)c3)no2)C1 (centres unmarked)	-0.844%
COc1cccc(C2C3=C(Nc4[nH]n(-c5ccccc5)c(=O)c42)c2ccccc2C3=O)c1 (centres unmarked)	21.2%
CC1(c2cccc(Br)c2)NC(=O)N(CC(=O)Nc2ccc(S(N)(=O)=O)cc2)C1=O (centres unmarked)	17.9%
COC(=O)c1sc2ccccc2c1-n1cccc1C(=O)C(=O)Nc1ccc(OC)cc1	-2.06%
CC(=O)NC1C(OCc2ccccc2)OC2COC(C)(C)OC2C1O (centres unmarked)	10.2%
Cc1nn(Cc2ccc(C(=O)N/N=C/c3ccncc3)o2)c(C)c1Cl	-20.3%
CCC(=O)N1CCN(c2nc3ccccc3s2)CC1	-2.76%
COc1ccc(C(C#N)N2CCC(c3ccccc3)=N2)cc1OC (centres unmarked)	2.21%
CC(C)C(=O)NC(c1ccco1)c1ccc2cccnc2c1O (centres unmarked)	7.53%
CCOC(=O)c1cnc(-n2nc(C)cc2C)nc1NNc1nc(C)cc(C)n1	12.8%
CCOC(=O)C1(C(=O)O)NC(=O)CC1c1ccccc1 (centres unmarked)	1.37%
CN1CCN(Cc2ccc(OCc3ccccc3)cc2)CC1	-2.71%
